{
  "source": "the supplement of paper PMC4604168 (melanoma cell lines)",
  "note": "The other results are listed elsewhere or left out. Repeats are few or missing, and single values can be far off.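 Further: cell number obtained by counting DAPI-stained nuclei in high-throughput microscope images with image analysis software, screen run in 1,536-well plates.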",
  "data": [
    {"system": "RPMI7951", "test": "cell count relative to DMSO control; melanoma cells; higher = more viable cells", "settings": "library dose: low library concentration; 72 h", "units": {"cell count": "%"}, "values": [
      {"smiles": "Cc1cc(Nc2cc(N3CCN(C)CC3)nc(/C=C/c3ccccc3)n2)n[nH]1", "note": "+ CCCCCCCCCCCC1=C(O)C(=O)C=C(O)C1=O [Embelin] (first compound 0.04 µM, partner dose 1.2 µM)", "cell count": 120},
      {"smiles": "Cn1c(=O)n(-c2ccc(C(C)(C)C#N)cc2)c2c3cc(-c4cnc5ccccc5c4)ccc3ncc21", "note": "+ Cc1cc(N2CCOCC2)cc2[nH]c(-c3c(NC[C@@H](O)c4cccc(Cl)c4)cc[nH]c3=O)nc12 [BMS536924] (first compound 0.004 µM, partner dose 0.2 µM)", "cell count": 91.2},
      {"smiles": "Cc1cc(Nc2cc(N3CCN(C)CC3)nc(/C=C/c3ccccc3)n2)n[nH]1", "note": "+ C=CCn1c(=O)c2cnc(Nc3ccc(N4CCN(C)CC4)cc3)nc2n1-c1cccc(C(C)(C)O)n1 [MK1775] (first compound 0.04 µM, partner dose 0.02 µM)", "cell count": 93.4},
      {"smiles": "CC(C)C[C@H](NC(=O)[C@H](Cc1ccccc1)NC(=O)c1cnccn1)B(O)O", "note": "[Bortezomib] + COC(=O)c1sccc1S(=O)(=O)Nc1ccc(Nc2ccccc2)cc1OC [GSK0660] (first compound 0.001 µM, partner dose 1 µM)", "cell count": 57.5},
      {"smiles": "Cc1cn(-c2cc(NC(=O)c3ccc(C)c(Nc4nccc(-c5cccnc5)n4)c3)cc(C(F)(F)F)c2)cn1", "note": "[nilotinib] + O=C(Nc1ccccc1)c1cc([N+](=O)[O-])ccc1Cl [GW9662] (first compound 0.2 µM, partner dose 2 µM)", "cell count": 87.2},
      {"smiles": "CC(C)C[C@H](NC(=O)[C@H](Cc1ccccc1)NC(=O)c1cnccn1)B(O)O", "note": "[Bortezomib] + C=CCn1c(=O)c2cnc(Nc3ccc(N4CCN(C)CC4)cc3)nc2n1-c1cccc(C(C)(C)O)n1 [MK1775] (first compound 0.001 µM, partner dose 0.02 µM)", "cell count": 66},
      {"smiles": "Cc1cn(-c2cc(NC(=O)c3ccc(C)c(Nc4nccc(-c5cccnc5)n4)c3)cc(C(F)(F)F)c2)cn1", "note": "[nilotinib] + CN(C)S(=O)(=O)c1ccc2c(c1)/C(=C/c1cc3c([nH]1)CCCC3)C(=O)N2 [SU6656] (first compound 0.2 µM, partner dose 0.4 µM)", "cell count": 95.2},
      {"smiles": "Cc1cc(Nc2cc(N3CCN(C)CC3)nc(/C=C/c3ccccc3)n2)n[nH]1", "note": "+ CC1(C)NC(=O)N(c2ccc([N+](=O)[O-])c(C(F)(F)F)c2)C1=O [nilutamide] (first compound 0.04 µM, partner dose 1 µM)", "cell count": 95},
      {"smiles": "Cn1c(=O)n(-c2ccc(C(C)(C)C#N)cc2)c2c3cc(-c4cnc5ccccc5c4)ccc3ncc21", "note": "+ O=C(O)c1ccc(-c2c[nH]c3ncc(-c4ccccc4)cc23)cc1C1CCCC1 [GSK650394] (first compound 0.004 µM, partner dose 0.16 µM)", "cell count": 90.3},
      {"smiles": "Cc1cn(-c2cc(NC(=O)c3ccc(C)c(Nc4nccc(-c5cccnc5)n4)c3)cc(C(F)(F)F)c2)cn1", "note": "[nilotinib] + Cc1ccc(NC(=O)c2cccc(N(C)C)c2)cc1NC(=O)c1ccc(O)cc1 [ZM336372] (first compound 0.2 µM, partner dose 2 µM)", "cell count": 91.7},
      {"smiles": "Cc1cc(Nc2cc(N3CCN(C)CC3)nc(/C=C/c3ccccc3)n2)n[nH]1", "note": "+ O=C(O)C(=O)Nc1sc2c(c1C(=O)O)CCNC2 [TCS401] (first compound 0.04 µM, partner dose 1.66667 µM)", "cell count": 112},
      {"smiles": "CC(C)C[C@H](NC(=O)[C@H](Cc1ccccc1)NC(=O)c1cnccn1)B(O)O", "note": "[Bortezomib] + COc1cc(Nc2ncc(F)c(Nc3ccc4c(n3)NC(=O)C(C)(C)O4)n2)cc(OC)c1OC [Tamatinib] (first compound 0.001 µM, partner dose 0.4 µM)", "cell count": 101},
      {"smiles": "Cc1cc(Nc2cc(N3CCN(C)CC3)nc(/C=C/c3ccccc3)n2)n[nH]1", "note": "+ Cc1cc(N2CCOCC2)cc2[nH]c(-c3c(NC[C@@H](O)c4cccc(Cl)c4)cc[nH]c3=O)nc12 [BMS536924] (first compound 0.04 µM, partner dose 0.2 µM)", "cell count": 96},
      {"smiles": "Cc1cn(-c2cc(NC(=O)c3ccc(C)c(Nc4nccc(-c5cccnc5)n4)c3)cc(C(F)(F)F)c2)cn1", "note": "[nilotinib] + COc1cc2ncnc(Nc3ccc(Oc4ccccc4)cc3)c2cc1OC [SrcI1] (first compound 0.2 µM, partner dose 2 µM)", "cell count": 102},
      {"smiles": "COc1ccc(C2=N[C@@H](c3ccc(Cl)cc3)[C@@H](c3ccc(Cl)cc3)N2C(=O)N2CCNC(=O)C2)c(OC(C)C)c1", "note": "[Nutlin-3] + CN(NC(=O)CC(=O)NN(C)C(=S)c1ccccc1)C(=S)c1ccccc1 [STA4783] (first compound 0.1 µM, partner dose 0.006 µM)", "cell count": 86.7},
      {"smiles": "Cc1cc(Nc2cc(N3CCN(C)CC3)nc(/C=C/c3ccccc3)n2)n[nH]1", "note": "+ COc1ccc(-c2ccc3c(N4CCOCC4)nc(N4C[C@@H](C)O[C@@H](C)C4)nc3n2)cc1CO [KU0063794] (first compound 0.04 µM, partner dose 0.02 µM)", "cell count": 83},
      {"smiles": "Cn1c(=O)n(-c2ccc(C(C)(C)C#N)cc2)c2c3cc(-c4cnc5ccccc5c4)ccc3ncc21", "note": "+ C[C@@H]1CCN(C(=O)CC#N)C[C@@H]1N(C)c1ncnc2[nH]ccc12 [CP690550] (first compound 0.004 µM, partner dose 1 µM)", "cell count": 113},
      {"smiles": "Cc1cn(-c2cc(NC(=O)c3ccc(C)c(Nc4nccc(-c5cccnc5)n4)c3)cc(C(F)(F)F)c2)cn1", "note": "[nilotinib] + C[C@@H]1CCN(C(=O)CC#N)C[C@@H]1N(C)c1ncnc2[nH]ccc12 [CP690550] (first compound 0.2 µM, partner dose 1 µM)", "cell count": 83.1},
      {"smiles": "Cn1c(=O)n(-c2ccc(C(C)(C)C#N)cc2)c2c3cc(-c4cnc5ccccc5c4)ccc3ncc21", "note": "+ NC(=O)Nc1cc(-c2cccc(F)c2)sc1C(=O)N[C@H]1CCCNC1 [AZD7762] (first compound 0.004 µM, partner dose 0.02 µM)", "cell count": 88.7}
    ]}
  ]
}
